# Test results taken from the supplement of paper PMC8728848.
# The list shows a part of the results.
# Tests used:
# Experiment in all cases: glycan array binding signal (z-score within array); higher = stronger binding
# Conditions in all cases: glycan notation: IUPAC condensed, linker removed
# [1] = biological target: Neu5Ac(a2-6)Gal(b1-3)GlcNAc(b1-3)[Gal(b1-4)GlcNAc(b1-6)]Gal(b1-4)Glc
# In short: (§1)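 Glycan array data were curated from 3228 arrays in the Consortium for Functional Glycomics database and kept only where the protein sequence was available. Glycan names were converted to IUPAC-condensed notation, and columns mapping to the same glycan were averaged. The binding signal is a within-array Z-score, averaged across arrays of the same protein sequence at different concentrations or buffers and across linkers. Negative Z-scores can be read as non-binding.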
# Neu5Ac(a2-6)Gal(b1-4)Glc = biological target: Neu5Ac(a2-6)Gal(b1-4)Glc
# In short: as §1
# [2] = biological target: Neu5Ac(a2-6)Gal(b1-4)GlcNAc
# In short: as §1
# [3] = biological target: Neu5Ac(a2-6)Gal(b1-4)GlcNAc(b1-2)Man
# In short: as §1
# [4] = biological target: Neu5Ac(a2-6)Gal(b1-4)GlcNAc(b1-2)Man(a1-3)Man(b1-4)GlcNAc(b1-4)GlcNAc
# In short: as §1
# [5] = biological target: Neu5Ac(a2-6)Gal(b1-4)GlcNAc(b1-2)Man(a1-3)[Gal(b1-4)GlcNAc(b1-2)Man(a1-6)]Man(b1-4)GlcNAc(b1-4)GlcNAc
# In short: as §1
# [6] = biological target: Neu5Ac(a2-6)Gal(b1-4)GlcNAc(b1-2)Man(a1-3)[GlcNAc(b1-2)Man(a1-6)]Man(b1-4)GlcNAc(b1-4)GlcNAc
# In short: as §1
# [7] = biological target: Neu5Ac(a2-6)Gal(b1-4)GlcNAc(b1-2)Man(a1-3)[GlcNAc(b1-4)][Neu5Ac(a2-6)Gal(b1-4)GlcNAc(b1-2)Man(a1-6)]Man(b1-4)GlcNAc(b1-4)GlcNAc
# In short: as §1
# [8] = biological target: Neu5Ac(a2-6)Gal(b1-4)GlcNAc(b1-2)Man(a1-3)[Man(a1-6)]Man(b1-4)GlcNAc(b1-4)GlcNAc
# In short: as §1
# [9] = biological target: Neu5Ac(a2-6)Gal(b1-4)GlcNAc(b1-2)Man(a1-3)[Neu5Ac(a2-3)Gal(b1-4)GlcNAc(b1-2)Man(a1-6)]Man(b1-4)GlcNAc(b1-4)GlcNAc
# In short: as §1
# [10] = biological target: Neu5Ac(a2-6)Gal(b1-4)GlcNAc(b1-2)Man(a1-3)[Neu5Ac(a2-6)Gal(b1-4)GlcNAc(b1-2)Man(a1-6)]Man(b1-4)GlcNAc(b1-4)GlcNAc
# In short: as §1
# [11] = biological target: Neu5Ac(a2-6)Gal(b1-4)GlcNAc(b1-2)Man(a1-3)[Neu5Ac(a2-6)Gal(b1-4)GlcNAc(b1-2)Man(a1-6)]Man(b1-4)GlcNAc(b1-4)[Fuc(a1-6)]GlcNAc
# In short: as §1
# [12] = biological target: Neu5Ac(a2-6)Gal(b1-4)GlcNAc(b1-2)Man(a1-6)Man(b1-4)GlcNAc(b1-4)GlcNAc
# In short: as §1
# [13] = biological target: Neu5Ac(a2-6)Gal(b1-4)GlcNAc(b1-2)Man(a1-6)[Gal(b1-4)GlcNAc(b1-2)Man(a1-3)]Man(b1-4)GlcNAc(b1-4)GlcNAc
# In short: as §1
# [14] = biological target: Neu5Ac(a2-6)Gal(b1-4)GlcNAc(b1-2)Man(a1-6)[GlcNAc(b1-2)Man(a1-3)]Man(b1-4)GlcNAc(b1-4)GlcNAc
# In short: as §1
# [15] = biological target: Neu5Ac(a2-6)Gal(b1-4)GlcNAc(b1-2)Man(a1-6)[Man(a1-3)]Man(b1-4)GlcNAc(b1-4)GlcNAc
# In short: as §1
# [16] = biological target: Neu5Ac(a2-6)Gal(b1-4)GlcNAc(b1-2)[Neu5Ac(a2-6)Gal(b1-4)GlcNAc(b1-4)]Man(a1-3)[GlcNAc(b1-4)][Neu5Ac(a2-6)Gal(b1-4)GlcNAc(b1-2)[Neu5Ac(a2-6)Gal(b1-4)GlcNAc(b1-6)]Man(a1-6)]Man(b1-4)GlcNAc(b1-4)GlcNAc
# In short: as §1
# [17] = biological target: Neu5Ac(a2-6)Gal(b1-4)GlcNAc(b1-2)[Neu5Ac(a2-6)Gal(b1-4)GlcNAc(b1-4)]Man(a1-3)[GlcNAc(b1-4)][Neu5Ac(a2-6)Gal(b1-4)GlcNAc(b1-4)Man(a1-6)]Man(b1-4)GlcNAc(b1-4)GlcNAc
# In short: as §1
# [18] = biological target: Neu5Ac(a2-6)Gal(b1-4)GlcNAc(b1-2)[Neu5Ac(a2-6)Gal(b1-4)GlcNAc(b1-6)]Man(a1-6)[Neu5Ac(a2-6)Gal(b1-4)GlcNAc(b1-2)Man(a1-3)][GlcNAc(b1-4)]Man(b1-4)GlcNAc(b1-4)GlcNAc
# In short: as §1
# [19] = biological target: Neu5Ac(a2-6)Gal(b1-4)GlcNAc(b1-3)Gal(b1-3)GlcNAc
# In short: as §1
# [20] = biological target: Neu5Ac(a2-6)Gal(b1-4)GlcNAc(b1-3)Gal(b1-4)GlcNAc
# In short: as §1
# [21] = biological target: Neu5Ac(a2-6)Gal(b1-4)GlcNAc(b1-3)Gal(b1-4)GlcNAc(b1-2)Man(a1-3)[Neu5Ac(a2-6)Gal(b1-4)GlcNAc(b1-3)Gal(b1-4)GlcNAc(b1-2)Man(a1-6)]GalNAc
# In short: as §1
# [22] = biological target: Neu5Ac(a2-6)Gal(b1-4)GlcNAc(b1-3)Gal(b1-4)GlcNAc(b1-3)Gal(b1-4)GlcNAc
# In short: as §1
# [23] = biological target: Neu5Ac(a2-6)Gal(b1-4)GlcNAc(b1-3)Gal(b1-4)GlcNAc(b1-3)Gal(b1-4)GlcNAc(b1-2)Man(a1-3)[Neu5Ac(a2-6)Gal(b1-4)GlcNAc(b1-3)Gal(b1-4)GlcNAc(b1-3)Gal(b1-4)GlcNAc(b1-2)Man(a1-6)]GalNAc
# In short: as §1
# [24] = biological target: Neu5Ac(a2-6)Gal(b1-4)GlcNAc(b1-3)Gal(b1-4)GlcNAc(b1-3)GalNAc
# In short: as §1
# [25] = biological target: Neu5Ac(a2-6)Gal(b1-4)GlcNAc(b1-3)Gal(b1-4)GlcNAc(b1-3)[Neu5Ac(a2-6)Gal(b1-4)GlcNAc(b1-3)Gal(b1-4)GlcNAc(b1-6)]GalNAc
# In short: as §1
# [26] = biological target: Neu5Ac(a2-6)Gal(b1-4)GlcNAc(b1-3)Gal(b1-4)GlcNAc(b1-6)[Gal(b1-3)]GalNAc
# In short: as §1
# [27] = biological target: Neu5Ac(a2-6)Gal(b1-4)GlcNAc(b1-3)Gal(b1-4)[Fuc(a1-3)]GlcNAc(b1-3)Gal(b1-4)[Fuc(a1-3)]GlcNAc
# In short: as §1
# [28] = biological target: Neu5Ac(a2-6)Gal(b1-4)GlcNAc(b1-3)GalNAc
# In short: as §1
# [29] = biological target: Neu5Ac(a2-6)Gal(b1-4)GlcNAc(b1-3)[Neu5Ac(a2-6)Gal(b1-4)GlcNAc(b1-6)]GalNAc
# In short: as §1
# [30] = biological target: Neu5Ac(a2-6)Gal(b1-4)GlcNAc(b1-6)GalNAc
# In short: as §1
# [31] = biological target: Neu5Ac(a2-6)Gal(b1-4)GlcNAc(b1-6)[Gal(b1-3)GlcNAc(b1-3)]Gal(b1-4)Glc
# In short: as §1
# [32] = biological target: Neu5Ac(a2-6)Gal(b1-4)GlcNAc(b1-6)[Gal(b1-3)]GalNAc
# In short: as §1
# [33] = biological target: Neu5Ac(a2-6)Gal(b1-4)GlcNAc6S
# In short: as §1
# Neu5Ac(a2-6)GalNAc = biological target: Neu5Ac(a2-6)GalNAc
# In short: as §1
# [34] = biological target: Neu5Ac(a2-6)GalNAc(b1-4)GlcNAc
# In short: as §1
# [35] = biological target: Neu5Ac(a2-6)GalNAc(b1-4)GlcNAc6S
# In short: as §1
# [36] = biological target: Neu5Ac(a2-6)GlcNAc(b1-4)GlcNAc
# In short: as §1
binder,measurement,setting,value
B725 (Bifidobacterium sp) (protein) MNNTTRAVIATAAIGALLIPLAGCGNTTTSSGKTELTVWSWDASIDRAAKSFMKANPDITVKVSNVGSTEETYTALNNAAQAGSGLPDVTLIEYLAIPQFVHSDTLMDLSKVYNTAKLKDTFTPGTWNSVNINGGLYAMPADSGPMAYFYDKDVFDKAGISEPPTTWDEFYEDAKKIRATGSYITSDSGDAGLFNAMMWAMGGHAYKLNDDKLTINIAKDKGAQRFMDLWQKMRDEDLIDVHTKTWTDDWMKSLGDGSIASLISGAWMANNLLQGVPQATGKFRVALLPTIDGTPINGEYGGSGLAITKKIPDGKLDAAKKFVEYVTTNDEGIDARVSNGSFPATTKTLNQKDFLAKTTLRNTDGSDNEFFGGQKYNEIFSQAAKDVTGKWEFLPFEPYARSVYNDNMGSFFAGKTSFRTAADNWQKALKDYAKDQGFTVQ,glycan array binding signal (z-score),[1],-0.205
same,glycan array binding signal (z-score),Neu5Ac(a2-6)Gal(b1-4)Glc,-0.232
same,glycan array binding signal (z-score),[2],-0.21
same,glycan array binding signal (z-score),[3],-0.206
same,glycan array binding signal (z-score),[4],-0.226
same,glycan array binding signal (z-score),[5],-0.213
same,glycan array binding signal (z-score),[6],-0.232
same,glycan array binding signal (z-score),[7],-0.227
same,glycan array binding signal (z-score),[8],-0.229
same,glycan array binding signal (z-score),[9],-0.199
same,glycan array binding signal (z-score),[10],-0.22
same,glycan array binding signal (z-score),[11],-0.217
same,glycan array binding signal (z-score),[12],-0.207
same,glycan array binding signal (z-score),[13],-0.216
same,glycan array binding signal (z-score),[14],-0.23
same,glycan array binding signal (z-score),[15],-0.225
same,glycan array binding signal (z-score),[16],-0.234
same,glycan array binding signal (z-score),[17],-0.212
same,glycan array binding signal (z-score),[18],-0.223
same,glycan array binding signal (z-score),[19],-0.174
same,glycan array binding signal (z-score),[20],-0.216
same,glycan array binding signal (z-score),[21],0.154
same,glycan array binding signal (z-score),[22],-0.185
same,glycan array binding signal (z-score),[23],-0.129
same,glycan array binding signal (z-score),[24],-0.214
same,glycan array binding signal (z-score),[25],-0.227
same,glycan array binding signal (z-score),[26],-0.204
same,glycan array binding signal (z-score),[27],-0.214
same,glycan array binding signal (z-score),[28],-0.218
same,glycan array binding signal (z-score),[29],-0.226
same,glycan array binding signal (z-score),[30],-0.186
same,glycan array binding signal (z-score),[31],-0.194
same,glycan array binding signal (z-score),[32],-0.186
same,glycan array binding signal (z-score),[33],-0.215
same,glycan array binding signal (z-score),Neu5Ac(a2-6)GalNAc,-0.23
same,glycan array binding signal (z-score),[34],-0.234
same,glycan array binding signal (z-score),[35],-0.224
same,glycan array binding signal (z-score),[36],-0.208
